From PubChem BioAssay AID504339 (National Center for Advancing Translational Sciences (NCATS), 2011)
Hit rate of the full screen: of about 390,000 compounds, about 17,000 (4.4%) were called active. The shares of active, inactive and inconclusive entries below differ from those in the screen. Calls come from the whole dose curve; as a rule, active = well fitted inhibition curve with a large enough effect; inconclusive = small, poorly fitted or top-dose-only effect; inactive = no such curve, though single readings can be large or run the other way. Potencies of inconclusive entries are doubtful fits and often do not repeat. The source holds several records for some structures; these can differ, active in one and inactive in another.

Target: Lysine-specific demethylase 4A (Homo sapiens) (UniProt O75164)
Chain of UniProt O75164 (O75164 whole entry, looked up, the tested form may be a part): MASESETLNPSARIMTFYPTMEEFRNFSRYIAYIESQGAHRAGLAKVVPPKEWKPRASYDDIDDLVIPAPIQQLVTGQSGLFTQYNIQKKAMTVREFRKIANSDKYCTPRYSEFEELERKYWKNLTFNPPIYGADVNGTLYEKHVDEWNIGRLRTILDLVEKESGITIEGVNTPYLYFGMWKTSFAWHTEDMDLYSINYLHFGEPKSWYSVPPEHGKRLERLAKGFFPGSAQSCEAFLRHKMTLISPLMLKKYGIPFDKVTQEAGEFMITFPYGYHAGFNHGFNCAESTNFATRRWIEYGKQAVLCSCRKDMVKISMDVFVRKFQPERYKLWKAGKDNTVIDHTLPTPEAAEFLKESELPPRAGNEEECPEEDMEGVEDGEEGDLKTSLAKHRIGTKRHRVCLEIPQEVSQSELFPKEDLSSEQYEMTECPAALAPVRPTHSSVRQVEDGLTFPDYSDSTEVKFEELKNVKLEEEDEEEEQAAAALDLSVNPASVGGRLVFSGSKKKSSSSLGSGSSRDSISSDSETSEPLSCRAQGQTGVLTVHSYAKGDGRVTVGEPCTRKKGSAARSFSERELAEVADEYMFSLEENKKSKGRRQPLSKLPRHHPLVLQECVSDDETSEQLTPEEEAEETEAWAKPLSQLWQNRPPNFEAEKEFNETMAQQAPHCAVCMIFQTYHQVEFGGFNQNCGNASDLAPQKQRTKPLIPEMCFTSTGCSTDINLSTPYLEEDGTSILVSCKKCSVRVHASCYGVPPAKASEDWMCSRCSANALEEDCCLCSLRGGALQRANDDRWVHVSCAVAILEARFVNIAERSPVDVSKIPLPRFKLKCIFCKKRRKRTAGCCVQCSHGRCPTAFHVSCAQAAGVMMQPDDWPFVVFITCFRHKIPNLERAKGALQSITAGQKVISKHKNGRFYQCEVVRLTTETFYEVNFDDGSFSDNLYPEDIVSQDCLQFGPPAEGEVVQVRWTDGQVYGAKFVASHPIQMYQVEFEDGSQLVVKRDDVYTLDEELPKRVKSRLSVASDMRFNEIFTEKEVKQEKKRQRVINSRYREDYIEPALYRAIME
Experiment: qHTS Assay for Inhibitors of JMJD2A-Tudor Domain; note: nearly all actives have a fitted effect of over 50% in size
Conditions: AlphaScreen JMJD2A-Tudor / H3K4me3 peptide binding; activity change, negative = inhibition: at 114 µM (top of the series)
% is set by controls: 0 for no effect and ±100 for the full control effect; potency is the fitted concentration of half-maximal effect; tags give direction and shape of the fitted curve.

Potency, inconclusive:
COc1ccc(-c2cn[nH]c2-c2ccc(OCc3ccc([N+](=O)[O-])cc3)cc2O)cc1OC 25.1 µM [inhibitor, full curve]
COc1ccc(-c2[nH]c(-c3ccccc3)nc2SCC(=O)Nc2ccc3c(c2)OCCO3)cc1 25.1 µM [inhibitor, partial curve]
COc1ccc(S(=O)(=O)n2nc(C)c(S(=O)(=O)N3CCOCC3)c2C)cc1 56.2 µM [inhibitor, partial curve]
COc1cc2cc(C(c3nnnn3C(C)(C)C)N3CCc4ccccc4C3)c(=O)[nH]c2cc1OC (stereo unspecified) 79.4 µM [inhibitor, partial curve]
Cc1cccc(C)c1NC(=O)CNCC(=O)Nc1c(C)cccc1C 0.708 µM [inhibitor, full curve]
Cc1cc(Nc2cc(N3CCN(C)CC3)nc(Sc3ccc(NC(=O)C4CC4)cc3)n2)n[nH]1 44.7 µM [inhibitor, partial curve]
Cc1ccc(NC(=O)CCn2cccc2)cc1C 56.2 µM [inhibitor, partial curve, poor fit]
COc1cc(OC)c(NC(=O)C(NS(=O)(=O)c2cccc3nsnc23)c2ccccc2)cc1Cl (stereo unspecified) 3.55 µM [inhibitor, full curve, poor fit]
NNC(=O)c1[nH]c(-c2ccccc2)cc1-c1ccccc1 50.1 µM [inhibitor, partial curve]
O=C(O)c1ccccc1C(=O)OCc1c(-c2ccccc2)ncc2ccccc12 3.98 µM [inhibitor, full curve, poor fit]
O=C(Oc1ccc(Br)cc1C(=S)N1CCOCC1)c1cccc([N+](=O)[O-])c1 56.2 µM [inhibitor, partial curve]
O=C1/C(=C\c2ccc(O)cc2)SC(=S)N1c1cccnc1 28.2 µM [inhibitor, partial curve]
CCn1c(SCC(=O)Nc2ccc(F)cc2F)nc2c(c1=O)SCC2 22.4 µM [inhibitor, partial curve]
CC(=O)Nc1cccc(OC(=O)c2ccoc2C)c1 89.1 µM [inhibitor, partial curve]
Cn1c(=S)c2[nH]c(SCCN3CCCC3)nc2n(C)c1=O 22.4 µM [inhibitor, partial curve, poor fit]
Cc1ccccc1-c1cn(-c2ccccc2)c(=S)[nH]1 14.1 µM [inhibitor, full curve]
COc1cc(C(=O)n2nc(C)cc2C)ccc1O 89.1 µM [inhibitor, single point]
CC1CCC2(CC1)NC(=O)N(CC(=O)Nc1cccc(S(=O)(=O)N3CCCCC3)c1)C2=O (stereo unspecified) 56.2 µM [inhibitor, partial curve]
Cc1ccc(OCC(=O)N(Cc2ccco2)Cc2ccco2)cc1C 79.4 µM [inhibitor, partial curve]
CC1CN(C(=S)NC(=O)c2ccco2)CC(C)O1 (stereo unspecified) 56.2 µM [inhibitor, partial curve, poor fit]
Cc1ccc(NC(=O)c2cc3c(=O)n(Cc4ccco4)ccc3nc2C)cc1C 56.2 µM [inhibitor, partial curve]
COc1ccc([C@H]2CC(=O)C=C(c3cc4ccccc4s3)C2)cc1OC 25.1 µM [inhibitor, full curve]
COc1ccc(OC)c2sc(NC(=O)C3COc4ccccc4O3)nc12 (stereo unspecified) 56.2 µM [inhibitor, partial curve, poor fit]
Cc1ccc(C(=O)N/C(=C\c2cn(C)c3ccccc23)C(=O)NCCCn2ccnc2)cc1 89.1 µM [inhibitor, partial curve]
COC(=O)c1ccc(N2CCN(C)CC2)c(NC(=O)c2sc3ccccc3c2Cl)c1 89.1 µM [inhibitor, partial curve]
CC(=O)Nc1ccc(Nc2nc3c(S(=O)(=O)c4cccc(Cl)c4)nnn3c3ccsc23)cc1 89.1 µM [inhibitor, partial curve]

Potency, inactive:
CN(C)S(=O)(=O)c1ccc(Cl)c(C(=O)NNC(=O)c2ccc3c(c2)OCO3)c1
CCCc1[nH]nc2c1C(c1ccc(O)c(OC)c1)C(C#N)=C(N)O2 (stereo unspecified)
O=C(O)COc1ccccc1/C=N/NC(=O)c1ccc2c(c1)OCCO2
O=C(Nc1sc2c(c1C(=O)Nc1ccc(Cl)cc1)CCCC2)c1cccs1
CC(=O)c1ccc(N(CC(=O)NC2CCCC2)C(=O)CCC(=O)Nc2cc(C)on2)cc1
CCOc1ccc(NS(=O)(=O)c2cccc(C(=O)NCC3(N(C)C)CCCCC3)c2)cc1
COc1ccc2[nH]c(C)c(CCN3C(=O)OC(C)(C)C3(C)O)c2c1 (stereo unspecified)
Cc1ccc(NC(=O)C(c2ccc(Cl)cc2)N2CCOCC2)cc1 (stereo unspecified)
CCCn1c(=O)c2c(nc3n2CCN3c2ccc(C)cc2)n(C)c1=O
Cc1cc(OCC(=O)OCC(=O)NCCN2C(=O)CSC2=O)ccc1Cl
O=S(=O)(Nc1cccc2cccnc12)c1ccc(S(=O)(=O)N2CCCC2)cc1
CCOC(=O)c1c(N)sc2c(OC)c(Br)ccc12

Potency, active:
Cc1ccccc1Nc1cc2ccccc2c(=O)[nH]1 44.7 µM
CCC(C)c1ccc(OCCCCN2CCOCC2)cc1 (stereo unspecified) 35.5 µM
Cc1ccc(NC(=O)CN2CCN(C(=O)c3ccco3)CC2)cc1S(=O)(=O)N(C)C 6.31 µM
N#C/C(=N\Nc1ccc([N+](=O)[O-])cc1)C(N)=S 28.2 µM
COc1ccc(CCNC(=O)CNCC2CCCO2)cc1OC (stereo unspecified) 3.55 µM
Cc1ccc(CN(C(=O)COc2ccc(Cl)cc2C)C2CCS(=O)(=O)C2)o1 (stereo unspecified) 11.2 µM
CN1CCN(CC(=O)NN(Cc2ccccc2)c2ccccc2)CC1 7.94 µM

Activity change, negative = inhibition, inactive:
Cn1c(-c2ccc(=O)[nH]c2)nc2ccccc21 -14.3% [at 11.4 µM]
